According to PubChem BioAssay AID624202 (National Center for Advancing Translational Sciences (NCATS), 2012):
The campaign covered roughly 380,000 compounds. About 4,000 (1.1%) were called active. Inconclusive results, whose numbers are uncertain, are shown with a selection of clear calls. The call rests on the fitted dose curve; in most records, active means well fitted activation curve with a large enough effect; inconclusive means small, poorly fitted or top-dose-only effect; inactive means no such curve, though single readings can be large or run the other way. Potencies of inconclusive entries are doubtful fits and often do not repeat.

test: qHTS Assay to Identify Small Molecule Activators of BRCA1 Expression; details: MCF7-BRCA1-FFLuc reporter, luminescence, 48 h; activation: at 46.1 µM (top of the series), scaled: vehicle 0%, 10 µM genistein 100% unless noted; further: nearly all actives have a fitted effect of over 80% in size
In short: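 Luminescence from a BRCA1-driven firefly luciferase in MCF7 cells was read after 48 h compound exposure at 37 C. Data normalized against DMSO and a 10microM genistein activation control, then curve-fitted across the titration.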
Potency means the concentration at half of the fitted maximal effect; tags describe the fitted curve by direction and shape.

Row | Structure (SMILES) | Potency | activation
1 | COc1ccc(C(NC(=O)COc2ccc(C#N)cc2)c2ccc(OC)cc2)cc1 | inactive | –
2 | CC(C)NC(=O)NC(=O)COC(=O)CCCSc1nc2ccccc2s1 | inactive | –
3 | Cc1cccc(OC(=O)c2sc3ncn(C)c(=O)c3c2C)c1 | inconclusive: 15.8 µM [activator, single point] | –
4 | O=C(Cc1ccccc1F)Nc1ccc2c(c1)CCC2 | inconclusive: 1.78 µM [activator, full curve, poor fit] | –
5 | CCc1ccc(OCC(=O)N2CCc3ccccc32)cc1 | inconclusive: 2.24 µM [activator, full curve, poor fit] | –
6 | O=[N+]([O-])c1ccc(S(=O)Cc2ccccc2)c([N+](=O)[O-])c1 (stereo not drawn) | inactive | –
7 | COc1ccc2nc3ccccc3[n+]([O-])c2c1 | inconclusive: 12.6 µM [activator, partial curve, poor fit] | –
8 | Cc1cc(NCCCn2ccnc2)n2ncc(-c3ccccc3)c2n1 | – | inconclusive: -65% [activator]
9 | Cc1ccccc1-c1cnc(C(O)c2ccc(F)cc2)[nH]1 (stereo not drawn) | inconclusive: 11.2 µM [activator, partial curve, poor fit] | –
10 | O=C(Nc1ccc(Cl)cc1Cl)c1ccc2c(=O)n3c(nc2c1)CCC3 | inconclusive: 2 µM [activator, full curve, poor fit] | –
11 | CC(Sc1nc(C(C)(C)C)cc(-c2ccccc2)c1C#N)C(=O)Nc1ccccc1 (stereo not drawn) | inactive | –
12 | CN(c1ccccc1)c1nc(N)c([N+](=O)[O-])c(N2CCCC2)n1 | active: 11.2 µM | –
13 | CC(C)(C)c1ccc(NC(=O)CC2(C(F)(F)F)OCCO2)cc1 | active: 3.55 µM | –
14 | c1ccc(NNC2=NCCS2)cc1 | inactive | –
15 | O=C(COC(=O)c1ccc2ncsc2c1)NC(=O)c1ccccc1 | inactive | –
16 | COc1ccc2cc(-c3ccn[nH]3)ccc2c1 | inconclusive: 1.58 µM [activator, full curve, poor fit] | –
17 | O=S1(=O)CCC(NC(=S)Nc2ccc3ccccc3c2)C1 (stereo not drawn) | inconclusive: 15.8 µM [activator, partial curve, poor fit] | –
18 | Cc1cc(C(=O)O/N=C(\N)c2ccncc2)ccc1[N+](=O)[O-] | inconclusive: 3.55 µM [activator, full curve, poor fit] | –
19 | Cc1cccc(-c2noc(CSc3ccccc3)n2)c1 | active: 3.16 µM | –
20 | Cc1cc(C)cc(NC(=O)Nc2ccc(N3CCCCC3)cc2)c1 | inconclusive: 12.6 µM [activator, partial curve, poor fit] | –
21 | C=CCOc1ccc(CNc2nccs2)cc1 | inconclusive: 12.6 µM [activator, partial curve, poor fit] | –
22 | CC(=O)N1N=C(c2ccc(C)cc2)OC1c1ccc(Br)cc1 (stereo not drawn) | active: 12.6 µM | –
23 | O=C(c1ccc(-c2ccccc2Cl)o1)N1CCN(S(=O)(=O)c2cccs2)CC1 | inconclusive: 1.58 µM [activator, partial curve, poor fit] | –
24 | O=C(CCCc1ccccc1)NC12CC3CC(CC(C3)C1)C2 | active: 2.82 µM | –

Row | Structure (SMILES) | Potency | activation
25 | Cc1cccc2sc(N(CCCN(C)C)C(=O)CCc3ccccc3)nc12 | inactive | –
26 | COCC(=O)Nc1nnc(-c2cccs2)s1 | inconclusive: 31.6 µM [activator, single point] | –
27 | N#Cc1ccc(C(S(=O)(=O)Cc2ccccc2)S(=O)(=O)Cc2ccccc2)cc1 | inactive | –
28 | NC1(C(=O)O)CSSC1 | inactive | –
29 | CC1=CC(C)(C)N2C(=O)C3(C(C#N)=C(N)Oc4cc(O)ccc43)c3c(C)c(C)cc1c32 (stereo not drawn) | inactive | –
30 | CCc1ccc(OCC(=O)NC2CCCCC2)c(Br)c1 | inconclusive: 35.5 µM [activator, partial curve, poor fit] | –
31 | CCC(=O)Nc1ccc(-c2ccc(N3CCC(C)CC3)nn2)cc1 | inconclusive: 0.631 µM [activator, full curve, poor fit] | –
32 | O=C(Nc1ccc(Cl)cc1)N1CC=CCC1 | active: 7.94 µM | –
33 | O=C(Nc1ccc(Cl)cc1)Nc1cccnc1 | inconclusive: 12.6 µM [activator, partial curve, poor fit] | –
34 | COc1cccc(/C=C/C(=O)Nc2ccc3c(c2)OCCO3)c1 | inconclusive: 1.78 µM [activator, partial curve, poor fit] | –
35 | O=C(NCCCCc1ccccc1)c1ccc(Br)cc1 | inconclusive: 14.1 µM [activator, partial curve, poor fit] | –
36 | Cc1ccc(Cc2c(-c3cccc(Cl)c3)nc3ccc(Br)cn23)cc1 | inconclusive: 12.6 µM [activator, partial curve, poor fit] | –
37 | CC(=O)c1cccc(NC(=S)N2CCc3ccccc32)c1 | inconclusive: 15.8 µM [activator, single point] | –
38 | COC(=O)C1(C(F)(F)F)C2C=CC(C2)N1S(=O)(=O)c1ccc(C)cc1 (stereo not drawn) | inactive | –
39 | O=[N+]([O-])c1ccc2[nH]c3nc4ccccc4nc3c2c1 | inactive | –
40 | O=C(N/N=C/c1cn(-c2ccccc2)nc1-c1cc2ccccc2o1)c1ccccc1Br | inconclusive: 3.16 µM [activator, partial curve, poor fit] | –
41 | Cc1ccc(C(=O)CN2C(=O)NC3(CCCCCC3)C2=O)c(C)c1 | active: 6.31 µM | –
42 | CCOP(=O)(OCC)/C(C#N)=C/c1ccc(-c2ccc(F)cc2F)o1 | inactive | –
43 | CCCCCn1c(=S)[nH]c2cc(C(=O)N3CCN(C(=O)OCC)CC3)ccc2c1=O | inactive | –
44 | CCOc1ccc(-c2nnc(SCC(=O)Nc3ccccc3C(F)(F)F)o2)cc1 | inconclusive: 22.4 µM [activator, single point] | –
45 | Cc1cc(OCc2ccc(C(=O)Nc3ccc(C(=O)O)cc3)o2)ccc1Cl | inconclusive: 1.78 µM [activator, full curve, poor fit] | –
46 | CN(C)c1ccc(NC(=O)CCCc2ccccc2)cc1 | inconclusive: 1.78 µM [activator, partial curve, poor fit] | –
47 | COc1ccc(C(=O)c2coc3ccc(O)cc23)cc1 | inconclusive: 3.16 µM [activator, partial curve, poor fit] | –
48 | O=C(N/N=C\c1ccc(Cl)s1)C1COc2ccccc2O1 (stereo not drawn) | inactive | –
